# Source: PubChem BioAssay AID485341 (National Center for Advancing Translational Sciences (NCATS), 2010)
# About 1,700 (0.52%) of roughly 330,000 compounds were called active. The shares of active, inactive and inconclusive entries below differ from those in the screen. Calls follow the shape of the dose curve; as a rule, active = well fitted inhibition curve with a large enough effect; inconclusive = small, poorly fitted or top-dose-only effect; inactive = no such curve, though single readings can be large or run the other way. Potencies of inconclusive entries are doubtful fits and often do not repeat.
# Target: Beta-lactamase (Escherichia coli (strain K12)) (UniProt P00811)
# Assay: qHTS Inhibitors of AmpC Beta-Lactamase (assay without detergent); also: nearly all actives have a fitted effect of over 20% in size
# Conditions: AmpC nitrocefin hydrolysis, absorbance 480 nm, 0.0001% Triton; series mostly up to 57.1 µM
# Procedure, shortened: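 20 mM phosphate pH 7.0 + 0.01% (detergent screen) or 0.0001% Triton X-100; 5.3 nM AmpC reagent; cpd preinc 15 min RT; nitrocefin (800 uM stock) to start; A480 q20 s × 4 min; Activity was normalised to no-enzyme and no-compound control wells.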
# Potency is read from the fitted curve at half-maximal effect; tags tell the direction and shape of the fitted curve.
# Sequence of UniProt P00811 (P00811 whole entry, looked up): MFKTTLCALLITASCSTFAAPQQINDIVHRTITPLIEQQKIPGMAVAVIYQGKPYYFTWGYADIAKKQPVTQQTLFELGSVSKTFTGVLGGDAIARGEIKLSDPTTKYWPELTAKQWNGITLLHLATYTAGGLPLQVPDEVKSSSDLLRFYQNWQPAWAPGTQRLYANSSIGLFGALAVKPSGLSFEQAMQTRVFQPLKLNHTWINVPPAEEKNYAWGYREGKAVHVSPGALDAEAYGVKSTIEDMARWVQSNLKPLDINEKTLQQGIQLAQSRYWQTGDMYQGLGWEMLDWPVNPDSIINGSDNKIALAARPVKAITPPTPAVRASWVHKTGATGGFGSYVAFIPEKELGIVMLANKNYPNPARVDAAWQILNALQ
row,SMILES,Potency
1,O=C(N/N=C/c1ccco1)c1cc(-c2ccccc2)nc2ccccc12,"inconclusive: 12.6 µM [inhibitor, single point]"
2,COc1cccc2c(=O)n(CC(=O)Nc3ccccc3)ccc12,active: 50.1 µM
3,O=C(c1cc(-c2ccc(Cl)c(Cl)c2)on1)N1CCCC1,"inconclusive: 0.708 µM [inhibitor, full curve, poor fit]"
4,Cc1ccccc1S(=O)(=O)Cc1ccc(C(=O)N2CCN(c3cccc(C)c3C)CC2)o1,inactive
5,O=C(Nc1ccccc1O)c1ccc(NS(=O)(=O)c2cccc3cccnc23)cc1,active: 15.8 µM
6,Cc1cc(C(=O)NCCCN2CCOCC2)n(-c2ccccc2)n1,active: 39.8 µM
7,Cc1occc1C(=O)Nc1cc(S(=O)(=O)N2CCOCC2)ccc1OC(C)C,inactive
8,CCOc1ccccc1C(=O)Nc1cccc(-c2ccc(N3CCOCC3)nn2)c1,"inconclusive: 35.5 µM [inhibitor, single point]"
9,CS(=O)(=O)c1cnc(-c2ccccc2)nc1Oc1ccc(F)cc1,"inconclusive: 6.31 µM [inhibitor, single point]"
10,O=C(Nc1ccc(-c2csc(Nc3ccc(Cl)cc3)n2)cc1)c1cccc(C(F)(F)F)c1,"inconclusive: 2.51 µM [inhibitor, full curve, poor fit]"
11,COc1cc(OC)c(C(=O)Nc2cccc3ccccc23)cc1OC,inactive
12,COc1ccc(-c2nn(-c3ccccc3)cc2C(=O)Nc2cccc(C(=O)O)c2)cc1[N+](=O)[O-],active: 3.55 µM
13,Cn1nc(CC(=O)NCc2cccc3ccccc23)c2ccccc2c1=O,inactive
14,CN(C)/C=C(\C=N\OCc1ccc(Cl)cc1Cl)C(=O)Nc1ccc(Cl)c(Cl)c1,"inconclusive: 31.6 µM [inhibitor, partial curve]"
15,CCc1ccc(-c2nc(NC(=O)c3ccc(OCC(=O)Nc4ccc(F)cc4)c(OC)c3)sc2C)cc1,inactive
16,COc1ccc(S(=O)(=O)N2CCOCC2)cc1NC(=O)Cc1c(Cl)cccc1Cl,inactive
17,O=C(COC(=O)c1cccc(Cl)c1Cl)NCCN1C(=O)CSC1=O,inactive
18,COc1ccc(NC(=O)Nc2cccc(C)n2)cc1,"inconclusive: 0.316 µM [inhibitor, full curve, poor fit]"
19,COC(=O)Cc1cc(=O)n(-c2nc3ccccc3s2)[nH]1,"inconclusive: 6.31 µM [inhibitor, single point]"
20,CCN(CC(=O)Nc1c(F)cccc1F)C(=O)c1cc([N+](=O)[O-])ccc1N1CCOCC1,"inconclusive: 39.8 µM [inhibitor, single point]"
